Experimental data: article PMC11208152, “Dynamic Arabidopsis P5CS filament facilitates substrate channelling” (Nature Plants, 2024)
Results are given in words; binding and its absence hold for the method and conditions named. Some results given as binding are weak or reduced against the parent protein; the word gives no strength.

Columns and labels:
[1] = target: AtP5CS2-GK, truncated AtP5CS2 consisting of residues 1-290 (glutamate kinase domain) (Arabidopsis thaliana) (UniProt P54888); assay: negative-staining EM; APO (ligand-free) state, 20 mM Tris-HCl, 150 mM NaCl, 10 mM MgCl2, pH 8.0; purified protein about 2-4 μM; step looked for: oligomers (tetramers) into filaments; both purified
[2] = target: Arabidopsis thaliana delta-1-pyrroline-5-carboxylate synthase 2 (AtP5CS2), wild type (Arabidopsis thaliana) (UniProt P54888); assay: condition: only APO state (ligand-free); protein about 2-4 μM; negative-staining EM; APO (ligand-free) state, 20 mM Tris-HCl, 150 mM NaCl, 10 mM MgCl2, pH 8.0; purified protein about 2-4 μM; step looked for: oligomers (tetramers) into filaments; both purified
[3] = target: Arabidopsis thaliana delta-1-pyrroline-5-carboxylate synthase 1 (AtP5CS1) (Arabidopsis thaliana) (UniProt P54887); assay: as above
[4] = target: AtP5CS2-F80A mutant (Arabidopsis thaliana) (UniProt P54888); assay: negative-staining EM; purified protein about 2-4 μM incubated at 25 °C with substrates (ATP, glutamate, both, or all substrates = mixed state) at the concentrations of the activity assay; step seen: oligomers (tetramers) into filaments; both purified
[5] = target: AtP5CS2-F80A mutant (Arabidopsis thaliana) (UniProt P54888); assay: condition: only APO state (ligand-free); protein about 2-4 μM; negative-staining EM; APO (ligand-free) state, 20 mM Tris-HCl, 150 mM NaCl, 10 mM MgCl2, pH 8.0; purified protein about 2-4 μM; step looked for: oligomers (tetramers) into filaments; both purified

B1: AtP5CS2-GK, truncated AtP5CS2 consisting of residues 1-290 (glutamate kinase domain) (domain or fragment, Arabidopsis thaliana, UniProt P54888 1-290, looked up)
chain: MTEIDRSRAFAKDVKRIVVKVGTAVVTGKGGRLALGRLGAICEQLAELNSDGFEVILVSSGAVGLGRQRLRYRQLVNSSFADLQKPQMELDGKACAGVGQSSLMAYYETMFDQLDVTVAQMLVTDSSFRDKDFRKQLSETVKAMLRMRVIPVFNENDAISTRRAPYKDSTGIFWDNDSLAALLSLELKADLLILLSDVEGLYTGPPSDSTSKLIHTFIKEKHQDEITFGEKSKLGRGGMTAKVKAAVNAAYGGVPVIITSGYAAENISKVLRGLRVGTLFHQDAHLWAPV
notes: Delta-1-pyrroline-5-carboxylate synthase 2 (P5CS2) of Arabidopsis thaliana, residues 1-290, the glutamate kinase (GK) domain; probably made as His6-SUMO fusion in E. coli and cleaved with ULP1 like the full-length AtP5CS2 (surmised); also called AtP5CS2 GK domain
binding [1]: binds weakly

B2: Arabidopsis thaliana delta-1-pyrroline-5-carboxylate synthase 2 (AtP5CS2), wild type (enzyme, UniProt P54888 1-726, looked up)
chain: MTEIDRSRAFAKDVKRIVVKVGTAVVTGKGGRLALGRLGAICEQLAELNSDGFEVILVSSGAVGLGRQRLRYRQLVNSSFADLQKPQMELDGKACAGVGQSSLMAYYETMFDQLDVTVAQMLVTDSSFRDKDFRKQLSETVKAMLRMRVIPVFNENDAISTRRAPYKDSTGIFWDNDSLAALLSLELKADLLILLSDVEGLYTGPPSDSTSKLIHTFIKEKHQDEITFGEKSKLGRGGMTAKVKAAVNAAYGGVPVIITSGYAAENISKVLRGLRVGTLFHQDAHLWAPVVDTTSRDMAVAARESSRKLQALSSEDRKQILHDIANALEVNEKTIKAENDLDVAAAQEAGYEESLVARLVMKPGKISSLAASVRQLAEMEDPIGRVLKKTQVADDLILEKTSSPIGVLLIVFESRPDALVQIASLAIRSGNGLLLKGGKEARRSNAILHKVITDAIPETVGGKLIGLVTSREEIPDLLKLDDVIDLVIPRGSNKLVSQIKNSTKIPVLGHADGICHVYVDKSGKLDMAKRIVSDAKLDYPAACNAMETLLVHKDLEQNGFLDDLIYVLQTKGVTLYGGPRASAKLNIPETKSFHHEYSSKACTVEIVEDVYGAIDHIHQHGSAHTDCIVTEDSEVAEIFLRQVDSAAVFHNASTRFSDGFRFGLGAEVGISTSRIHARGPVGVEGLLTTRWIMRGKGQVVDGDNGIVYTHKDLPVLQRTEAVENGI
notes: Delta-1-pyrroline-5-carboxylate synthase 2 (P5CS2) of Arabidopsis thaliana; In the filament the helical unit is a tetramer (GK tetramer core, two GPR dimers); Only the GK tetramer was modelled at high resolution; also called AtP5CS2-WT; WT AtP5CS2; source: E. coli Rosetta (DE3), purified (Ni-NTA, SUMO-tag removed with yeast ULP1, Superose 6 Increase SEC); not shown: His6, N-terminal, cleaved; …
binding [2]: no binding

B3: Arabidopsis thaliana delta-1-pyrroline-5-carboxylate synthase 1 (AtP5CS1) (enzyme, UniProt P54887 1-717, looked up)
chain: MEELDRSRAFARDVKRIVVKVGTAVVTGKGGRLALGRLGALCEQLAELNSDGFEVILVSSGAVGLGRQRLRYRQLVNSSFADLQKPQTELDGKACAGVGQSSLMAYYETMFDQLDVTAAQLLVNDSSFRDKDFRKQLNETVKSMLDLRVIPIFNENDAISTRRAPYQDSSGIFWDNDSLAALLALELKADLLILLSDVEGLYTGPPSDPNSKLIHTFVKEKHQDEITFGDKSRLGRGGMTAKVKAAVNAAYAGIPVIITSGYSAENIDKVLRGLRVGTLFHQDARLWAPITDSNARDMAVAARESSRKLQALSSEDRKKILLDIADALEANVTTIKAENELDVASAQEAGLEESMVARLVMTPGKISSLAASVRKLADMEDPIGRVLKKTEVADGLVLEKTSSPLGVLLIVFESRPDALVQIASLAIRSGNGLLLKGGKEARRSNAILHKVITDAIPETVGGKLIGLVTSREEIPDLLKLDDVIDLVIPRGSNKLVTQIKNTTKIPVLGHADGICHVYVDKACDTDMAKRIVSDAKLDYPAACNAMETLLVHKDLEQNAVLNELIFALQSNGVTLYGGPRASKILNIPEARSFNHEYCAKACTVEVVEDVYGAIDHIHRHGSAHTDCIVTEDHEVAELFLRQVDSAAVFHNASTRFSDGFRFGLGAEVGVSTGRIHARGPVGVEGLLTTRWIMRGKGQVVDGDNGIVYTHQDIPIQA
notes: Delta-1-pyrroline-5-carboxylate synthase 1 (P5CS1) of Arabidopsis thaliana; also called His6-AtP5CS1; not shown: His6, N-terminal, kept
binding [3]: no binding

B4: AtP5CS2-F80A mutant (enzyme, UniProt P54888 1-726)
chain: MTEIDRSRAFAKDVKRIVVKVGTAVVTGKGGRLALGRLGAICEQLAELNSDGFEVILVSSGAVGLGRQRLRYRQLVNSSAADLQKPQMELDGKACAGVGQSSLMAYYETMFDQLDVTVAQMLVTDSSFRDKDFRKQLSETVKAMLRMRVIPVFNENDAISTRRAPYKDSTGIFWDNDSLAALLSLELKADLLILLSDVEGLYTGPPSDSTSKLIHTFIKEKHQDEITFGEKSKLGRGGMTAKVKAAVNAAYGGVPVIITSGYAAENISKVLRGLRVGTLFHQDAHLWAPVVDTTSRDMAVAARESSRKLQALSSEDRKQILHDIANALEVNEKTIKAENDLDVAAAQEAGYEESLVARLVMKPGKISSLAASVRQLAEMEDPIGRVLKKTQVADDLILEKTSSPIGVLLIVFESRPDALVQIASLAIRSGNGLLLKGGKEARRSNAILHKVITDAIPETVGGKLIGLVTSREEIPDLLKLDDVIDLVIPRGSNKLVSQIKNSTKIPVLGHADGICHVYVDKSGKLDMAKRIVSDAKLDYPAACNAMETLLVHKDLEQNGFLDDLIYVLQTKGVTLYGGPRASAKLNIPETKSFHHEYSSKACTVEIVEDVYGAIDHIHQHGSAHTDCIVTEDSEVAEIFLRQVDSAAVFHNASTRFSDGFRFGLGAEVGISTSRIHARGPVGVEGLLTTRWIMRGKGQVVDGDNGIVYTHKDLPVLQRTEAVENGI
binding [4]: no binding (tested: about 2-4 μM protein, all substrates) | binding [5]: no binding
